Assay results taken from the supplement of paper PMC8948288.
The sequences are guide strands of siRNAs; only the seed at positions 2 to 7 varies.

Assays:
[1] = tested on: GL261; test: cell viability relative to siNT1 (ATP content); H4 human neuroglioma and GL261 mouse glioma; higher = less toxic; conditions: siRNA concentration 25 nM; 96 h; mouse
[2] = tested on: H4; test: as above; conditions: siRNA concentration 10 nM; 96 h; human
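Note: cells reverse transfected with siRNA duplexes via lipid reagent, ATP read by luminescence, triplicate wells, values scaled to mean viability with non-targeting control siNT1.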

UGCAGGGACAUGUAAACCA
cell viability [1]: 12.9%
cell viability [2]: 11.6%

UGCAGGUACAUGUAAACCA
cell viability [1]: 19.3%
cell viability [2]: 2.36%

UGCAGUAACAUGUAAACCA
cell viability [1]: 37.3%
cell viability [2]: 81.7%

UGCAGUCACAUGUAAACCA
cell viability [1]: 15.9%
cell viability [2]: 51.2%

UGCAGUGACAUGUAAACCA
cell viability [1]: 56.5%
cell viability [2]: 81.5%

UGCAGUUACAUGUAAACCA
cell viability [1]: 42.5%
cell viability [2]: 67%

UGCAUAAACAUGUAAACCA
cell viability [1]: 73.4%
cell viability [2]: 78.4%

UGCAUACACAUGUAAACCA
cell viability [1]: 25.7%
cell viability [2]: 66.2%

UGCAUAGACAUGUAAACCA
cell viability [1]: 45.1%
cell viability [2]: 79.5%

UGCAUAUACAUGUAAACCA
cell viability [1]: 69.1%
cell viability [2]: 69%

UGCAUCAACAUGUAAACCA
cell viability [1]: 40.1%
cell viability [2]: 77%

UGCAUCCACAUGUAAACCA
cell viability [1]: 23.9%
cell viability [2]: 39.5%

UGCAUCGACAUGUAAACCA
cell viability [1]: 27.4%
cell viability [2]: 103%

UGCAUCUACAUGUAAACCA
cell viability [1]: 44.2%
cell viability [2]: 75.4%

UGCAUGAACAUGUAAACCA
cell viability [1]: 26.3%
cell viability [2]: 70.8%

UGCAUGCACAUGUAAACCA
cell viability [1]: 15%
cell viability [2]: 40.4%

UGCAUGGACAUGUAAACCA
cell viability [1]: 53.7%
cell viability [2]: 69%

UGCAUGUACAUGUAAACCA
cell viability [1]: 15.4%
cell viability [2]: 48.4%

UGCAUUAACAUGUAAACCA
cell viability [1]: 87.7%
cell viability [2]: 65.1%

UGCAUUCACAUGUAAACCA
cell viability [1]: 85.4%
cell viability [2]: 59.9%

UGCAUUGACAUGUAAACCA
cell viability [1]: 64.6%
cell viability [2]: 81.6%

UGCAUUUACAUGUAAACCA
cell viability [1]: 33.7%
cell viability [2]: 56.2%

UGCCAAAACAUGUAAACCA
cell viability [1]: 42.5%
cell viability [2]: 86.1%

UGCCAACACAUGUAAACCA
cell viability [1]: 35.9%
cell viability [2]: 74.2%

UGCCAAGACAUGUAAACCA
cell viability [1]: 43.6%
cell viability [2]: 63.9%

UGCCAAUACAUGUAAACCA
cell viability [1]: 40.7%
cell viability [2]: 105%

UGCCACAACAUGUAAACCA
cell viability [1]: 33.9%
cell viability [2]: 71.5%

UGCCACCACAUGUAAACCA
cell viability [1]: 12.9%
cell viability [2]: 67.7%

UGCCACGACAUGUAAACCA
cell viability [1]: 30.9%
cell viability [2]: 61.5%

UGCCACUACAUGUAAACCA
cell viability [1]: 31.8%
cell viability [2]: 48.8%

UGCCAGAACAUGUAAACCA
cell viability [1]: 45.9%
cell viability [2]: 81.1%

UGCCAGCACAUGUAAACCA
cell viability [1]: 7.68%
cell viability [2]: 20.9%

UGCCAGGACAUGUAAACCA
cell viability [1]: 24.9%
cell viability [2]: 5.83%

UGCCAGUACAUGUAAACCA
cell viability [1]: 15.4%
cell viability [2]: 56.5%

UGCCAUAACAUGUAAACCA
cell viability [1]: 53.3%
cell viability [2]: 95.6%

UGCCAUCACAUGUAAACCA
cell viability [1]: 10.3%
cell viability [2]: 4.51%

UGCCAUGACAUGUAAACCA
cell viability [1]: 43.6%
cell viability [2]: 50%

UGCCAUUACAUGUAAACCA
cell viability [1]: 36.2%
cell viability [2]: 74.7%

UGCCCAAACAUGUAAACCA
cell viability [1]: 38.2%
cell viability [2]: 84.1%

UGCCCACACAUGUAAACCA
cell viability [1]: 31.8%
cell viability [2]: 69.2%

UGCCCAGACAUGUAAACCA
cell viability [1]: 24.1%
cell viability [2]: 67%

UGCCCAUACAUGUAAACCA
cell viability [1]: 47.4%
cell viability [2]: 76.3%

UGCCCCAACAUGUAAACCA
cell viability [1]: 47.4%
cell viability [2]: 85.6%

UGCCCCCACAUGUAAACCA
cell viability [1]: 34.6%
cell viability [2]: 30.5%

UGCCCCGACAUGUAAACCA
cell viability [1]: 45.2%
cell viability [2]: 74.5%

UGCCCCUACAUGUAAACCA
cell viability [1]: 47.6%
cell viability [2]: 94.7%

UGCCCGAACAUGUAAACCA
cell viability [1]: 59.4%
cell viability [2]: 76.2%

UGCCCGCACAUGUAAACCA
cell viability [1]: 70.9%
cell viability [2]: 67%

UGCCCGGACAUGUAAACCA
cell viability [1]: 59.9%
cell viability [2]: 61.4%

UGCCCGUACAUGUAAACCA
cell viability [1]: 44.2%
cell viability [2]: 84.7%

UGCCCUAACAUGUAAACCA
cell viability [1]: 61.6%
cell viability [2]: 84.4%

UGCCCUCACAUGUAAACCA
cell viability [1]: 8.96%
cell viability [2]: 9.65%

UGCCCUGACAUGUAAACCA
cell viability [1]: 30.5%
cell viability [2]: 102%

UGCCCUUACAUGUAAACCA
cell viability [1]: 20.2%
cell viability [2]: 64.8%

UGCCGAAACAUGUAAACCA
cell viability [1]: 65.9%
cell viability [2]: 88.5%

UGCCGACACAUGUAAACCA
cell viability [1]: 26.2%
cell viability [2]: 11.6%

UGCCGAGACAUGUAAACCA
cell viability [1]: 42.5%
cell viability [2]: 86.8%

UGCCGAUACAUGUAAACCA
cell viability [1]: 43.6%
cell viability [2]: 74.1%

UGCCGCAACAUGUAAACCA
cell viability [1]: 27.9%
cell viability [2]: 103%

UGCCGCCACAUGUAAACCA
cell viability [1]: 10.9%
cell viability [2]: 58.4%

UGCCGCGACAUGUAAACCA
cell viability [1]: 38.6%
cell viability [2]: 78.4%

UGCCGCUACAUGUAAACCA
cell viability [1]: 26.1%
cell viability [2]: 42%

UGCCGGAACAUGUAAACCA
cell viability [1]: 48.7%
cell viability [2]: 60.4%

UGCCGGCACAUGUAAACCA
cell viability [1]: 32.2%
cell viability [2]: 27.8%

UGCCGGGACAUGUAAACCA
cell viability [1]: 24.2%
cell viability [2]: 55.6%

UGCCGGUACAUGUAAACCA
cell viability [1]: 42.8%
cell viability [2]: 26.1%

UGCCGUAACAUGUAAACCA
cell viability [1]: 57.5%
cell viability [2]: 86.3%

UGCCGUCACAUGUAAACCA
cell viability [1]: 16.1%
cell viability [2]: 68.3%

UGCCGUGACAUGUAAACCA
cell viability [1]: 35%
cell viability [2]: 97.6%

UGCCGUUACAUGUAAACCA
cell viability [1]: 38.6%
cell viability [2]: 76.2%

UGCCUAAACAUGUAAACCA
cell viability [1]: 51.8%
cell viability [2]: 84%

UGCCUACACAUGUAAACCA
cell viability [1]: 27.7%
cell viability [2]: 43.5%

UGCCUAGACAUGUAAACCA
cell viability [1]: 57.2%
cell viability [2]: 97.1%

UGCCUAUACAUGUAAACCA
cell viability [1]: 40.2%
cell viability [2]: 48.7%

UGCCUCAACAUGUAAACCA
cell viability [1]: 49.4%
cell viability [2]: 52.2%

UGCCUCCACAUGUAAACCA
cell viability [1]: 36.4%
cell viability [2]: 31.4%

UGCCUCGACAUGUAAACCA
cell viability [1]: 55.9%
cell viability [2]: 51%

UGCCUCUACAUGUAAACCA
cell viability [1]: 32.7%
cell viability [2]: 55%

UGCCUGAACAUGUAAACCA
cell viability [1]: 45.6%
cell viability [2]: 50.8%

UGCCUGCACAUGUAAACCA
cell viability [1]: 14.5%
cell viability [2]: 5.97%

UGCCUGGACAUGUAAACCA
cell viability [1]: 22.2%
cell viability [2]: 25.6%

UGCCUGUACAUGUAAACCA
cell viability [1]: 34%
cell viability [2]: 8.62%

UGCCUUAACAUGUAAACCA
cell viability [1]: 82.9%
cell viability [2]: 57.9%

UGCCUUCACAUGUAAACCA
cell viability [1]: 8.92%
cell viability [2]: 4.51%

UGCCUUGACAUGUAAACCA
cell viability [1]: 72.4%
cell viability [2]: 62.8%

UGCCUUUACAUGUAAACCA
cell viability [1]: 19.3%
cell viability [2]: 24.7%

UGCGAAAACAUGUAAACCA
cell viability [1]: 47.6%
cell viability [2]: 113%

UGCGAACACAUGUAAACCA
cell viability [1]: 63.5%
cell viability [2]: 75%

UGCGAAGACAUGUAAACCA
cell viability [1]: 50.2%
cell viability [2]: 93.9%

UGCGAAUACAUGUAAACCA
cell viability [1]: 39.7%
cell viability [2]: 96.3%
